In PMC12136788:
This is one part of the list.

B1: chr10:37831617:37833116:-|CDS|ENSG00000198105|control|control|control (ssRNA)
RNA: GGGAGUUCUACAGUCCGACGAUCCAUCAGAGGACUCACACAGGGGAGAAGCCGUAUGAGUGUAAUGCAUGUGGGAAGACCUUUAGUCAGAGGUCAGUGCUCACCAAACAUCAGAGAAUUCACACAAGGGUGAAAGCUCUUUCACAACAGAGGAUUGAGCAUCA
B2: chr3:52708059:52708100:+|3pUTR|ENSG00000114902|msi1_unk|FALSE|overlapping (ssRNA)
RNA: GGGAGUUCUACAGUCCGACGAUCACACAAGUAUGAAGUUUCUUUCAGGUGUAAAUAAUGAAAAAUAAAUGCCUCAUAAAUGAUAGUACAAUGUAACUAUCAAAGUUUUAUAAUUCAUUAUGAGUUAACCAUUUUAAUGUUUCCCAACAGAGGAUUGAGCAUCA
B3: chr19:33301014:33301115:-|3pUTR|ENSG00000245848|unk|FALSE|unique (ssRNA)
RNA: GGGAGUUCUACAGUCCGACGAUCUCCCUGCGAGGAGGGGAGAAUUCUUGGGGCUGAGCUGGGAGCCCGGCAACUCUAGUAUUUAGGAUAACCUUGUGCCUUGGAAAUGCAAACUCACCGCUCCAAUGCCUACUGAGUAGGGGGCAACAGAGGAUUGAGCAUCA
B4: chr16:2602459:2602560:+|3pUTR|ENSG00000140992|msi1|total|mutant (ssRNA)
RNA: GGGAGUUCUACAGUCCGACGAUCAACUAUGUACAGAGAACUUUUUACAAAAGGCAGACCUUUUUUAAGCUGUGUAACCCACACCGCCUAACCACCUGGCAGAAUGACUACGAACCGGGGUCAUUGUGCUGGUAAAAGCCUCUACAACAGAGGAUUGAGCAUCA
B5: chr15:78283234:78283431:-|three_prime_utr|ENSG00000140395|control|control|control (ssRNA)
RNA: GGGAGUUCUACAGUCCGACGAUCUCUCCAGGCUUAUGCUGCAAAGAGAAUGUACGGAUUGAUCAUGACAUUCCUUACCUUCUUAGGCUUGUUUAAAAGAAAUAUAGCAUUUAUUGUAGCAAAGACUUAAAUUUUGUAGAUACACAACAGAGGAUUGAGCAUCA
B6: chr16:70532473:70532607:+|CDS|ENSG00000189091|unk|FALSE|bound_elsewhere (ssRNA)
RNA: GGGAGUUCUACAGUCCGACGAUCCAAUGAUCCAACAGGGGAAGCAGCAGCUAAUACCCAGCAGACACUUACUUUCUAUGAGCUAGACCUUGGUUUAAAUCAUGUGGUCCGAAAAUACAGUGAACCUUUGGAGGAACACGGCAACAACAGAGGAUUGAGCAUCA
B7: chr2:1632960:1633155:-|3pUTR|ENSG00000130508|msi1|FALSE|unique (ssRNA)
RNA: GGGAGUUCUACAGUCCGACGAUCGUCCAUUUUUUAGGUAUUAGAUAUGGCAGAAAAACCAUUUCCACUAUGCAAAGUUCUUUUAGACGUCAGUGAAAAUCAACUCUCAUACCUCAUGGUCUCUCUUUAAUUGACCAAAACCUUCAACAGAGGAUUGAGCAUCA
B8: chr12:96953524:96953626:+|3pUTR|ENSG00000139350|unk|total|mutant (ssRNA)
RNA: GGGAGUUCUACAGUCCGACGAUCCUUUUUUAAAAAAAUAAAUACACAUAAUGUAUAUUAAAAGAGGUGGGAUGAAAUAAUUUCCGUAAUUAUGUGUACAGAUGAAACAUUUUUGUCAUGGAAUUUAAAAGCUAAGUAAGUAUACAACAGAGGAUUGAGCAUCA
B9: chr5:96979339:96979440:+|CDS|ENSG00000113441|unk|FALSE|bound_elsewhere (ssRNA)
RNA: GGGAGUUCUACAGUCCGACGAUCGAGGAGGAUGAAGAGGAUUAUGAGUCAUCAGCAAAGCUGCUGGGCAUGUCCUUCAUGAAUAGAAGCUCAGGCCUUCGGAACAGUGCAACUGGUUACAGGCAGAGCCCAGAUGGGGCUUGUCAACAGAGGAUUGAGCAUCA
B10: chr17:79834786:79834887:-|CDS|ENSG00000141582|unk|FALSE|unique (ssRNA)
RNA: GGGAGUUCUACAGUCCGACGAUCAAUGAUGCCGGCCCCCAAAGAGGCUGUGACGGGCAACGGGAUUGGGGGCAAGAUGAAGAUAGUCAAGAACAAGAACAAGAACGGACGCAUCGUGAUCGUGAUGAGCAAAUACAUGGAGAACAACAGAGGAUUGAGCAUCA
B11: chr12:6965432:6965572:-|3pUTR|ENSG00000215021|unk|FALSE|unique (ssRNA)
RNA: GGGAGUUCUACAGUCCGACGAUCUGCGAUGGUCCCCCACACCGGUUCCCUGAACCCCUCUUGGAUUAAGGAAGACUGAAGACUAGCCCCUUUUCUGGGGAAUUACUUUCCUCCUCCCUGUGUUAACUGGGGCUGUUGGGGACACAACAGAGGAUUGAGCAUCA
B12: chr21:44330462:44330919:-|CDS|ENSG00000160226|control|control|control (ssRNA)
RNA: GGGAGUUCUACAGUCCGACGAUCUUCCCUCUCAGCCAGGGAUGCCUCGAGCAGCCACAGGGGCAGGGUGAGUGGCGGGCCGCUAGGGGCCGCGGCUGCCUCUGCCCACUGCACCCACUGCACAGAAACCGUGGGGAGGGAGCACAACAGAGGAUUGAGCAUCA
B13: chr13:47936490:47936773:-|three_prime_utr|ENSG00000136143|control|control|control (ssRNA)
RNA: GGGAGUUCUACAGUCCGACGAUCCAGAGAAGCAUCUUUUUAUUUGUUUUUGAUAUCCUUGUUUGAUGAAACCAGCAUCGUUUUAGAAAAAAUAUCUUUGUUUUAGUAAAAAUGACACAUACUCAUUGAAAAAAUAAACCCCUUCAACAGAGGAUUGAGCAUCA
B14: chrX:51682015:51682831:-|CDS|ENSG00000283093|control|control|control (ssRNA)
RNA: GGGAGUUCUACAGUCCGACGAUCCAGUGCCCCCGGGUCCAAGUCGGGGUCGGGAGCCACGCGGCGGCCAAGAGGUGGCUGGGUAGGUGGCGACGGAAGCGCCGCUGGCGGCGGGUCCGGAAGGCGGGCCCCAGAGACCUGCUGCAACAGAGGAUUGAGCAUCA

molecular target: MSI1 full-length (mouse, UniProt Q61474 1-362); experiment: nsRBNS (natural sequence RNA bind-n-seq); RBNS binding buffer (assumed for nsRBNS): 25 mM Tris pH 7.5, 150 mM KCl, 3 mM MgCl2, 0.01% Triton X-100, 500 ug/ml BSA, 20 U/ml SUPERase-In, 4 C; UNK is unkempt and MSI1 is Musashi-1; names of the RNAs are library labels; protein concentration not given here; high values mean tight binding
UniProt Q61474, sequence (Q61474 whole entry): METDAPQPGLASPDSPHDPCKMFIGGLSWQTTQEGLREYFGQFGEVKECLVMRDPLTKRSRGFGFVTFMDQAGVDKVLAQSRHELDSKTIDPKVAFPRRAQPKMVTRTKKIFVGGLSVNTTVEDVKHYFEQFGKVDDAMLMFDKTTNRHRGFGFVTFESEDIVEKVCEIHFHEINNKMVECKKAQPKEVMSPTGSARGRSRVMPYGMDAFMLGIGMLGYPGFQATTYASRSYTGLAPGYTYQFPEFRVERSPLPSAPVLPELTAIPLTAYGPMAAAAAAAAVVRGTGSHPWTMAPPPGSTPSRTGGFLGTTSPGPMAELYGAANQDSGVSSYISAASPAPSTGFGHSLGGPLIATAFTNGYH

| Binder | binding signal [enrichment R] |
| --- | --- |
| B1 | 0.582 |
| B2 | 0.579 |
| B3 | 2.63 |
| B4 | 0.378 |
| B5 | 13.8 |
| B6 | 0.48 |
| B7 | 2.36 |
| B8 | 4.23 |
| B9 | 0.426 |
| B10 | 0.585 |
| B11 | 0.424 |
| B12 | 1.48 |
| B13 | 4.22 |
| B14 | 0.375 |
